Out of some 55,000 compounds screened, about 340 (0.62%) were called active. Inconclusive results, whose numbers are uncertain, are shown with a selection of clear calls. The call rests on the fitted dose curve; in most records, active means well fitted cell-killing curve with a large enough effect; inconclusive means small, poorly fitted or top-dose-only effect; inactive means no such curve, though single readings can be large or run the other way. Where the call is inconclusive, the potency comes from a doubtful curve fit.
test: qHTS Screen for Compounds that Selectively Target Cancer Cells with p53 Mutations: Cytotoxicity of p53 Null Cells at the Permissive Temperature; conditions: H1299-neo p53 null cells, ATP luminescence, 24 h, 32C; series mostly up to 46.1 µM; activity change, negative = cytotoxicity: at the top concentration; further: nearly all actives have a fitted effect of over 55% in size;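 on activity change, negative = cytotoxicity: 0% = DMSO only and -100% = full killing by 100 µM tamoxifen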
Method in brief: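 Luminescent ATP readout gave cell viability of p53-null H1299-neo cells after a 24 h compound exposure at the permissive 32C. Titrations ran up to 46 uM, and AC50s were fitted with the standard Hill equation.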
Potency means the concentration at half of the fitted maximal effect; tags describe the fitted curve by direction and shape.

| SMILES | Potency | activity change, negative = cytotoxicity |
| --- | --- | --- |
| CCOC(=O)c1cc2c(=O)n3ccccc3nc2n(Cc2ccco2)c1=NC(=O)c1cc(C)cc(C)c1 | inconclusive: 1.26 µM [cytotoxic, full curve] |  |
| COc1ccc(-c2cc(C(=O)Oc3ccc(Br)cc3)c3ccccc3n2)cc1 | inconclusive: 15.8 µM [cytotoxic, partial curve] |  |
| O=C(Nc1ccc2c(c1)CCCN2C(=O)c1cccs1)c1ccccc1C(F)(F)F | inconclusive: 6.31 µM [cytotoxic, partial curve] |  |
| Cc1ccc2scc(N3CCCC(C)C3)c(=O)c2c1 (centres undefined) | inconclusive: 12.6 µM [cytotoxic, single point] |  |
| COc1ccccc1C(=O)OCc1cc(=O)n2c(C)csc2n1 | inconclusive: 10 µM [cytotoxic, partial curve] |  |
| CCCOc1ccc(CC2C(=O)Nc3ccc(Br)cc32)cc1 (centres undefined) | inconclusive: 31.6 µM [cytotoxic, single point] |  |
| COc1cc2cc(CNc3ccccc3)c(=O)n(CC(=O)Nc3cc(C)cc(C)c3)c2cc1OC |  | inactive: -1.43% |
| Cc1cc(C)c2c(n1)SCCN2C(=O)Nc1ccc(C(=O)Nc2ccc(C(C)C)cc2)cc1 | inconclusive: 14.1 µM [cytotoxic, partial curve] |  |
| COc1ccc(/C=C/C(=O)Nc2ccc3nc(N4CCCCC4)cc(C)c3c2)cc1OC |  | inactive: -7.01% |
| Cc1cc(C)cc(NC(=O)C2CCN(S(=O)(=O)c3ccc4c(c3)oc(=O)n4C)CC2)c1 | inconclusive: 31.6 µM [cytotoxic, single point] |  |
| O=C(N/N=C/c1cccs1)c1n[nH]c2c1CCC2 | inconclusive: 35.5 µM [cytotoxic, single point] |  |
| CCCN(C(=O)c1cc2c(s1)-c1c(C)cccc1OC2)c1ccc(OCC)cc1 | inconclusive: 15.8 µM [cytotoxic, partial curve, poor fit] |  |
| CCCCOc1ccc(C(=O)Nc2onc3c2CCCC3)cc1 | inconclusive: 20 µM [cytotoxic, partial curve, poor fit] |  |
| Cc1cc(C)cc(NC(=O)Nc2cccs2)c1 | inconclusive: 3.16 µM [cytotoxic, partial curve, poor fit] |  |
| COCCNC(=O)CSc1nnc(NC(=O)Nc2ccc(C)cc2)s1 | active: 12.6 µM |  |
| COC(=O)c1c(SCC(=O)Nc2cc(F)ccc2F)[nH]c2ccc(C)cc2c1=O | inconclusive: 2.51 µM [cytotoxic, full curve] |  |
| COc1ccc(OC)c(NC(=O)c2sc3nc4c(cc3c2N)CCCCCC4)c1 | inconclusive: 25.1 µM [cytotoxic, single point] |  |
| CCOC(=O)c1cnc2ccccc2c1Nc1ccc(N2CCOCC2)cc1 |  | inactive: -10.4% |
| CCc1ccc(C(=O)/C=C/c2cnn(C)c2C)s1 | inconclusive: 17.8 µM [cytotoxic, single point] |  |
| Cc1ccc(-n2nc(CO)c(C(=O)NCCO)n2)cc1 | inconclusive: 11.2 µM [cytotoxic, partial curve, poor fit] |  |
| CCOC(=O)c1c(NC(=O)c2ccc(S(=O)(=O)N(C)C)cc2)sc2c1CCN(C)C2 |  | inactive: -1.41% |
| Cc1c(Cl)cccc1NC(=O)CN1C(=O)CSc2ccc(S(=O)(=O)N3CCCC3)cc21 |  | inactive: 6.79% |

| SMILES | Potency | activity change, negative = cytotoxicity |
| --- | --- | --- |
| CCN(CCCNC(=O)c1cc2c(=O)[nH]c3ccc(C)cc3c2s1)Cc1ccccc1 | inconclusive: 6.31 µM [cytotoxic, single point] |  |
| Cc1ccc(C)c(NC(=O)Cn2c(=O)oc3cc(S(=O)(=O)NCc4ccccc4)ccc32)c1 |  | inactive: 2.91% |
| Cc1ccc(S(=O)(=O)c2cn(CC(=O)Nc3ccc4c(c3)OCO4)c3ccc(F)cc3c2=O)cc1 | inconclusive: 2.82 µM [cytotoxic, single point] |  |
| O=C(NC1CC1)c1ccc(Cn2c(SCc3ccccc3F)nc3cccnc32)cc1 | inconclusive: 14.1 µM [cytotoxic, partial curve] |  |
| CCCCN(CC)CCCNC(=O)C1CCN(c2nc3ccc(CC)cc3s2)CC1 | inconclusive: 10 µM [cytotoxic, partial curve] |  |
| COc1cccc(CNC(=O)Cn2c(SCC(=O)Nc3ccc(F)cc3)nc3ccccc32)c1 | inconclusive: 35.5 µM [cytotoxic, single point] |  |
| COc1cccc(CNC(=O)CN(c2ccc(C(C)C)cc2)S(=O)(=O)c2c(C)n[nH]c2C)c1 |  | inactive: 19.7% |
| Fc1ccc(N2CCN(c3ncnc4c3nc3n4CCCCC3)CC2)cc1 |  | inactive: -5.03% |
| COCCNc1oc(-c2ccc(COc3ccc(OC)cc3)o2)nc1C#N |  | inactive: -3.5% |
| Cc1ccc(C(=O)Nc2ccccc2C(=O)O)cc1S(=O)(=O)N1CCCCCC1 | active: 5.01 µM |  |
| Cc1ccc2[nH]c(C(=O)Nc3ccccc3)cc2c1 | inconclusive: 15.8 µM [cytotoxic, partial curve] |  |
| Cc1ccc2scc(N3CCCCC3)c(=O)c2c1 | active: 10 µM |  |
| Nc1ccc2nc(-c3ccc(O)cc3)sc2c1 | active: 2.51 µM |  |
| COc1cccc(C(=O)NCC(=O)OCc2cc(=O)n3ccsc3n2)c1 |  | inactive: -11.1% |
| O=C(CSc1c2c(nc3cc(Cl)ccc13)CCCC2)N1CCN(c2ccccc2F)CC1 | inconclusive: 3.55 µM [cytotoxic, single point] |  |
| COc1ccc(NC(=O)CCNS(=O)(=O)c2ccc3c(c2)CCN3C(=O)C2CC2)cc1Cl |  | inactive: 6.41% |
| Cc1ccsc1CCN1C(=O)N(c2ccc(F)cc2)C(=O)C1CC(=O)Nc1ccccc1 (centres undefined) | inconclusive: 35.5 µM [cytotoxic, single point] |  |
| Cc1cc(C)c(NS(=O)(=O)c2cc(-c3cnc(C4CC4)o3)ccc2C)c(C)c1 |  | inactive: 0.768% |
| CC(C)(C)OC(=O)N1CCC(c2c(C(=O)N3CCC(c4ccccc4)C3)cnn2-c2ccc(Cl)cc2)CC1 (centres undefined) | inconclusive: 25.1 µM [cytotoxic, single point] |  |
| CCOC(=O)c1cccc(NC(=O)CSc2nc3cc4ccccc4cc3[nH]2)c1 |  | inactive: -15.9% |
| Cc1cccc(NC(=O)CSc2nc3ccccc3c3nc(CCc4c(C)n[nH]c4C)nn23)c1 | inconclusive: 31.6 µM [cytotoxic, single point] |  |
| O=C(CSc1nnnn1-c1ccccc1)N1N=CCC1c1ccccc1 (centres undefined) | inconclusive: 20 µM [cytotoxic, partial curve, poor fit] |  |

Source: PubChem BioAssay AID903 (National Center for Advancing Translational Sciences (NCATS), 2007)
